Assay [1] concerns the target T1, GST-tagged PGM (residues 316-623) domain of UBASH3A (human) (UniProt P57075).
T1 sequence: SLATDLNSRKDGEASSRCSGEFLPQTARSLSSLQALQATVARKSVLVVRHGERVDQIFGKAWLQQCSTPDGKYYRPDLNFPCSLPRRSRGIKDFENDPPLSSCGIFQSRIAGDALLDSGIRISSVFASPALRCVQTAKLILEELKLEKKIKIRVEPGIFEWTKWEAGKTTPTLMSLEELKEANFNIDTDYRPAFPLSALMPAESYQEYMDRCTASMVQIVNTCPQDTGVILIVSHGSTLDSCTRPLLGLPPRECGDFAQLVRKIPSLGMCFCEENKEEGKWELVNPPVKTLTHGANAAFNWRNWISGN
The assay can be described thus: pull-down; GST or GST-tagged UBASH3A domains at the same molar concentration on Glutathione Sepharose 4B with 1 mg precleared lysate of unstimulated Jurkat cells, 2 h at 4 °C, four washes with EBC lysis buffer; blot with anti-PTPN22; only the target purified.

Assay [2] addresses T2, GST-tagged UBA (residues 20-60) domain of UBASH3A (human) (UniProt P57075).
T2 sequence: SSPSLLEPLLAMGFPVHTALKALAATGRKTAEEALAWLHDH
Described as above.

Assay [3] addresses T3, GST-tagged SH3 (residues 241-300) domain of UBASH3A (human) (UniProt P57075).
T3 sequence: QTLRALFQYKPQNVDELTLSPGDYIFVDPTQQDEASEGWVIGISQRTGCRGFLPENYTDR
The assay is described as above.

Assay [4] addresses T4, UBASH3A (human (endogenous in Jurkat)) (UniProt P57075).
T4 sequence: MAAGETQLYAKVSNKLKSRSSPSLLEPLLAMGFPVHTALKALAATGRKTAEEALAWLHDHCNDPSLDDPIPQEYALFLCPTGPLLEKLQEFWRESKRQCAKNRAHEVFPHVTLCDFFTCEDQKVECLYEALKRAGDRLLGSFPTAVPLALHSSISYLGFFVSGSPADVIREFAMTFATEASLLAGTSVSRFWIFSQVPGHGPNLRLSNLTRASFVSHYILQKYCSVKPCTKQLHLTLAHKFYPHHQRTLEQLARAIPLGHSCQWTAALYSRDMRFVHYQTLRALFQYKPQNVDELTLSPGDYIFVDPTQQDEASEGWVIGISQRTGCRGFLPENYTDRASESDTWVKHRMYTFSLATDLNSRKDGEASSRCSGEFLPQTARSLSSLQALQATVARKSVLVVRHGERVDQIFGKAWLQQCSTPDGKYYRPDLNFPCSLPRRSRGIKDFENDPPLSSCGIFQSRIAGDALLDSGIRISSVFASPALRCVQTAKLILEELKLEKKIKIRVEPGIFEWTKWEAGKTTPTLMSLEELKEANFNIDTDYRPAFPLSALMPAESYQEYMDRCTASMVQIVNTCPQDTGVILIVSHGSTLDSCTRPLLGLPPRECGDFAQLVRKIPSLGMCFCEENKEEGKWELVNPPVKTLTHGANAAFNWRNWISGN
As to the kind of experiment: co-IP; Jurkat whole-cell lysate (EBC lysis buffer: 50 mM Tris-HCl pH 7.5, 120 mM NaCl, 0.5% NP-40, 1 mM EDTA) immunoprecipitated with anti-UBASH3A or IgG, 4 h or overnight at 4 °C, Protein G Dynabeads; blot with anti-PTPN22.

Assay [5] has as its target T5, V5-tagged W279A UBASH3A (human) (UniProt P57075).
T5 sequence: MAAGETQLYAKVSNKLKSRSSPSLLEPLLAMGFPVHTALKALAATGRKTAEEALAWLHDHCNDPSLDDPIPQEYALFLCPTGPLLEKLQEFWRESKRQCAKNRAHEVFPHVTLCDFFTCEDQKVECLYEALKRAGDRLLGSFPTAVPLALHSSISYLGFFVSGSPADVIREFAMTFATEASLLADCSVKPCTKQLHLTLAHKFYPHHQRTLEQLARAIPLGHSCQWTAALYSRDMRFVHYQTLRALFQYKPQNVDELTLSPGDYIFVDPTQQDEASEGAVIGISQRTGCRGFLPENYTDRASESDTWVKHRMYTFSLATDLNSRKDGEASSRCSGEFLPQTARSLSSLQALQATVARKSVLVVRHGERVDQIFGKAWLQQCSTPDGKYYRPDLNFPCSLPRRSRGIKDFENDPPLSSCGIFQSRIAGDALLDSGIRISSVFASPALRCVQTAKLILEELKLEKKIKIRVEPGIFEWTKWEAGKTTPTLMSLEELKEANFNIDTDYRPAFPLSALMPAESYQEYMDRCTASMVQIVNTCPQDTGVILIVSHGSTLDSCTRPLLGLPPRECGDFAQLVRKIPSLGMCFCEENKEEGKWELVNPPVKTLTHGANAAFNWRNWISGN
The assay can be described thus: co-IP; HEK293T co-transfected with FLAG-tagged PTPN22 and V5-tagged UBASH3A; lysates immunoprecipitated with anti-V5, Protein G Dynabeads, 4 °C; blot with anti-FLAG.

Assay [6] addresses T6, V5-tagged wild-type UBASH3A (human) (UniProt P57075).
T6 sequence: T5 sequence with A279W
Described as above.

Changes are numbered by the printed parent chain. Names may count otherwise. No constants are given. Whether binding was seen depends on the method and setting. In cells and extracts the contact can be indirect. Some entries that bind do so weakly or less than the wild type. For some assays here: Where a sequence is shown, tags or fusion partners need not be part of it.

B1: PTPN22 (protein, UniProt Q9Y2R2 1-807)
chain: MDQREILQKFLDEAQSKKITKEEFANEFLKLKRQSTKYKADKTYPTTVAEKPKNIKKNRYKDILPYDYSRVELSLITSDEDSSYINANFIKGVYGPKAYIATQGPLSTTLLDFWRMIWEYSVLIIVMACMEYEMGKKKCERYWAEPGEMQLEFGPFSVSCEAEKRKSDYIIRTLKVKFNSETRTIYQFHYKNWPDHDVPSSIDPILELIWDVRCYQEDDSVPICIHCSAGCGRTGVICAIDYTWMLLKDGIIPENFSVFSLIREMRTQRPSLVQTQEQYELVYNAVLELFKRQMDVIRDKHSGTESQAKHCIPEKNHTLQADSYSPNLPKSTTKAAKMMNQQRTKMEIKESSSFDFRTSEISAKEELVLHPAKSSTSFDFLELNYSFDKNADTTMKWQTKAFPIVGEPLQKHQSLDLGSLLFEGCSNSKPVNAAGRYFNSKVPITRTKSTPFELIQQRETKEVDSKENFSYLESQPHDSCFVEMQAQKVMHVSSAELNYSLPYDSKHQIRNASNVKHHDSSALGVYSYIPLVENPYFSSWPPSGTSSKMSLDLPEKQDGTVFPSSLLPTSSTSLFSYYNSHDSLSLNSPTNISSLLNQESAVLATAPRIDDEIPPPLPVRTPESFIVVEEAGEFSPNVPKSLSSAVKVKIGTSLEWGGTSEPKKFDDSVILRPSKSVKLRSPKSELHQDRSSPPPPLPERTLESFFLADEDCMQAQSIETYSTSYPDTMENSTSSKQTLKTPGKSFTRSKSLKILRNMKKSICNSCPPNKPAESVQSNNSSSFLNFGFANRFSKPKGPRNPPPTWNI
For the molecule B1, the binding entry in assay [1] was “no binding (tested: 22.9 mg of GST-tagged PGM)”; in assay [2], “no binding (tested: 11.6 mg of GST-tagged UBA)”; in assay [3] it was “binds”; in assay [4] it was “binds”.

B2: FLAG-tagged R620W PTPN22 (protein, UniProt Q9Y2R2 1-807)
chain: B1 chain with R620W
In the case of B2, the binding result in assay [5] and in assay [6] was “binds” throughout.

B3: FLAG-tagged wild-type PTPN22 (protein, UniProt Q9Y2R2 1-807)
chain: B1 chain
B3: the binding result in assay [5] and in assay [6] was “binds” throughout.
